Measured values taken from a collection of fitness landscapes (doi:10.1126/science.1257360).
Some of the results follow.

B1: PhoQ; a variant is named by its letters at X, in order, P23837 (parent)
chain: MKKLLRLFFPLSLRVRFLLATAAVVLVLSLAYGMVALIGYSVSFDKTTFRLLRGESNLFYTLAKWENNKLHVELPENIDKQSPTMTLIYDENGQLLWAQRDVPWLMKMIQPDWLKSNGFHEIEADVNDTSLLLSGDHSIQQQLQEVREDDDDAEMTHSVAVNVYPATSRMPKLTIVVVDTIPVELKSSYMVWSWFIYVLSANLLLVIPLLWVAAWWSLRPIEALAKEVRELEEHNRELLNPATTRELTSLVRNLNRLLKSERERYDKYRTTLTDLTHSLKTPLXXLQXXLRSLRSEKMSVSDAEPVMLEQISRISQQIGYYLHRASMRGGTLLSRELHPVAPLLDNLTSALNKVYQRKGVNISLDISPEISFVGEQNDFVEVMGNVLDNACKYCLEFVEISARQTDEHLYIVVEDDGPGIPLSKREVIFDRGQRVDTLRPGQGVGLAVAREITEQYEGKIVAGESMLGGARMEVIFGRQHSAPKDE

Variants of: B1
Assay: enrichment ratio after two sorts for PhoP signalling (ratio (wild type AVST 3.29)); higher = more functional
Settings: with PhoP (E. coli)

Variant | enrichment ratio
VTTW | ≤ 0.25
FGSP | ≤ 0.25
QTIS | ≤ 0.25
YSVQ | ≤ 0.25
VGRY | ≤ 0.25
LPVS | ≤ 0.25
LSGI | ≤ 0.25
WKVV | ≤ 0.25
TYRQ | ≤ 0.25
VYEA | ≤ 0.25
PTIE | ≤ 0.25
MSTD | ≤ 0.25
QFYY | ≤ 0.25
CLWM | ≤ 0.25
KVQT | ≤ 0.25
QEPI | ≤ 0.25
PSCY | ≤ 0.25
WSFC | ≤ 0.25
DKFP | ≤ 0.25
YYQN | ≤ 0.25
MFKM | ≤ 0.25
DCRR | ≤ 0.25
VQYT | ≤ 0.25
IWRV | ≤ 0.25
RLDH | ≤ 0.25

Variant | enrichment ratio
LNNM | ≤ 0.25
LQRP | ≤ 0.25
DMTW | ≤ 0.25
ANVN | ≤ 0.25
GRLW | ≤ 0.25
RLSH | ≤ 0.25
GFYM | ≤ 0.25
KHIS | ≤ 0.25
SFWW | ≤ 0.25
GKNE | ≤ 0.25
TRCR | ≤ 0.25
NFDT | ≤ 0.25
HWNI | ≤ 0.25
MYWG | ≤ 0.25
DFIW | ≤ 0.25
KGLQ | ≤ 0.25
AYRH | ≤ 0.25
IHQL | ≤ 0.25
FHWW | ≤ 0.25
HNRM | ≤ 0.25
EKRF | ≤ 0.25
GRDY | ≤ 0.25
YFTY | ≤ 0.25
ISAT | ≤ 0.25
SQYD | ≤ 0.25

Variant | enrichment ratio
RMII | ≤ 0.25
FFRQ | ≤ 0.25
WQGW | ≤ 0.25
QFYV | ≤ 0.25
YANM | 0.317
LEEW | ≤ 0.25
RCCE | ≤ 0.25
FYPV | ≤ 0.25
FEGR | ≤ 0.25
RYFF | 0.259
RCNN | ≤ 0.25
GNWK | ≤ 0.25
GSAF | ≤ 0.25
VWFT | ≤ 0.25
HIVV | ≤ 0.25
FEHK | ≤ 0.25
YFFP | ≤ 0.25
DWMT | ≤ 0.25
TVEE | ≤ 0.25
PPVG | ≤ 0.25
MGHY | ≤ 0.25
HWIH | ≤ 0.25
TVVT | ≤ 0.25
MYAI | ≤ 0.25
FWYI | ≤ 0.25

Variant | enrichment ratio
PFGG | ≤ 0.25
YNVD | ≤ 0.25
KRGY | ≤ 0.25
GSMT | 2.16
EVTW | ≤ 0.25
MPCC | ≤ 0.25
YYNK | ≤ 0.25
YYDK | ≤ 0.25
IDQH | ≤ 0.25
HSWH | ≤ 0.25
LCQH | ≤ 0.25
GIVN | 8.67
MWTA | ≤ 0.25
FPGK | ≤ 0.25
QRAQ | ≤ 0.25
VIMQ | ≤ 0.25
SASW | ≤ 0.25
YYFN | ≤ 0.25
QIGM | ≤ 0.25
FACP | ≤ 0.25
DTDD | ≤ 0.25
RADW | ≤ 0.25
QHTK | ≤ 0.25
RCIE | ≤ 0.25
STVL | 7.85

Variant | enrichment ratio
PELG | ≤ 0.25
MHDY | ≤ 0.25
YKPH | ≤ 0.25
SFAN | ≤ 0.25
IDIL | ≤ 0.25
QEHC | 11
VPDV | ≤ 0.25
HARA | ≤ 0.25
VCDV | ≤ 0.25
IWHQ | ≤ 0.25
EMGR | ≤ 0.25
TVIN | ≤ 0.25
VSCP | ≤ 0.25
PNSW | ≤ 0.25
IRMY | ≤ 0.25
SAMY | 4.56
HWTH | ≤ 0.25
TSFM | 0.785
GQCG | 16.6
FEVW | ≤ 0.25
DPDK | ≤ 0.25
TRCA | 0.602
PAWH | ≤ 0.25
DHTH | ≤ 0.25
FYHN | ≤ 0.25

Variant | enrichment ratio
ESEG | ≤ 0.25
DFVI | ≤ 0.25
QTMR | ≤ 0.25
QPLT | ≤ 0.25
HIHG | ≤ 0.25
GWSF | ≤ 0.25
WQIM | ≤ 0.25
MNRL | ≤ 0.25
YFFC | ≤ 0.25
RGFR | ≤ 0.25
THTV | 9.73
EISN | ≤ 0.25
REYT | ≤ 0.25
QQCN | ≤ 0.25
LKPL | ≤ 0.25
EKHL | ≤ 0.25
KGRA | ≤ 0.25
EHYS | ≤ 0.25
NKAP | ≤ 0.25
CYVL | ≤ 0.25
QTVH | ≤ 0.25
MFLK | ≤ 0.25
YDWV | ≤ 0.25
VQHQ | ≤ 0.25
GADM | ≤ 0.25

Variant | enrichment ratio
YVQV | ≤ 0.25
DYQL | ≤ 0.25
TLDH | ≤ 0.25
RTFQ | ≤ 0.25
WPSM | ≤ 0.25
WLWF | ≤ 0.25
FAKD | ≤ 0.25
LMDS | ≤ 0.25
KSVR | ≤ 0.25
NMGR | ≤ 0.25
VWWE | ≤ 0.25
YTGR | ≤ 0.25
TNLG | ≤ 0.25
MEGQ | ≤ 0.25
YTYV | ≤ 0.25
FQYS | ≤ 0.25
AMRH | ≤ 0.25
LMEL | ≤ 0.25
WEVE | ≤ 0.25
VFCD | ≤ 0.25
QEYA | ≤ 0.25
SCRW | ≤ 0.25
PDDI | ≤ 0.25
ATIQ | 5.38
CFYA | ≤ 0.25

Variant | enrichment ratio
KGAS | ≤ 0.25
SDDH | ≤ 0.25
QFTI | ≤ 0.25
LWFE | ≤ 0.25
MTCV | ≤ 0.25
FCHP | ≤ 0.25
YQLS | ≤ 0.25
SSAG | 9.87
APAP | ≤ 0.25
MDAD | ≤ 0.25
NHHD | ≤ 0.25
PHSQ | ≤ 0.25
TCSD | ≤ 0.25
KRDN | ≤ 0.25
RKSP | ≤ 0.25
VYIY | ≤ 0.25
PVMY | ≤ 0.25
GMKL | ≤ 0.25
HWYH | ≤ 0.25
LSTG | ≤ 0.25
